Experimental data reported in article PMC12136788.
The list shows a part of the results.

B1: chr19:50958630:50959316:-|three_prime_utr|ENSG00000167755|control|control|control (ssRNA)
RNA: GGGAGUUCUACAGUCCGACGAUCAUGUGACAUCUACCUCCCGACCUACCACCCCACUGGCUGGUUCCAGAACGUCUCUCACCUAGACCUUGCCUCCCCUCCUCUCCUGCCCAGCUCUGACCCUGAUGCUUAAUAAACGCAGCGCAACAGAGGAUUGAGCAUCA
B2: chr19:38730201:38730298:+|3pUTR|ENSG00000130402|msi1_unk|total|mutant (ssRNA)
RNA: GGGAGUUCUACAGUCCGACGAUCCAGAGAAUUACUAUUUACUUUAUUAACUUACGGAUUUAUUAUAUAAAUAUAUAUUCACCCCGCAACAUAUCUCUGCCGUCUCUCCUGCUCUCAUAAUGAAGACACCGCCGAUUCUCUGCCCAACAGAGGAUUGAGCAUCA
B3: chr9:113042727:113044268:-|CDS|ENSG00000136866|control|control|control (ssRNA)
RNA: GGGAGUUCUACAGUCCGACGAUCCAUCAGAGAGUUCAUACUGGAGAGAAACCGUAUGAGUGUAAUGAAUGUGGGAAAGCCUUUAGCCAAAAGUCUCACCUCAUUGUACAUCAGAGAACUCAUACUGGGGAGAAACCUUAUGAACAACAGAGGAUUGAGCAUCA
B4: chr3:196319341:196319897:-|three_prime_utr|ENSG00000145107|control|control|control (ssRNA)
RNA: GGGAGUUCUACAGUCCGACGAUCAUCACAGGUGCGAGUCACCGUGCCUGGCCAACUAAUGAAAAGUUUAAAGAAUUUAUAUCUAGUUUUGGAUGUUAGGCAUGCACACACAAGUGCAUGCACACUCAUACACAUCAUCUCCACCAACAGAGGAUUGAGCAUCA
B5: chr14:102081487:102081564:-|3pUTR|ENSG00000080824|msi1_unk|total|mutant (ssRNA)
RNA: GGGAGUUCUACAGUCCGACGAUCGAAGAUAAGAUUUCUGUCUACUAAGUGAUGCUGUGAUACCUCCGGCACUAAAGCAGAGCCCGUAAUGCUUUUUGAGUUUCAUGUUGGUUUAUUUUCACAGAUUGGGGUAACGUGCACUGUCAACAGAGGAUUGAGCAUCA
B6: ENSG00000136935:stop:overlap|stop_codon|ENSG00000136935|stop_codon|NA|stop_codon (ssRNA)
RNA: GGGAGUUCUACAGUCCGACGAUCAACCAGCUCCCAAGGGCAGCAUCCGGCCGUCUAUCUCAAACCCUCGGAUACCAUGGUCCUAGAGGGGACUACCCAAGGAUGGAGCUCCGUGGGUUGACACUUUUUCUGUGAAAAGAACACCAACAGAGGAUUGAGCAUCA
B7: chr1:111147767:111147876:+|CDS|ENSG00000134255|unk|total|mutant (ssRNA)
RNA: GGGAGUUCUACAGUCCGACGAUCAUUAAAUAAAUUGUUUCAGUUACCAACACCACCAUUGUCAAGACACCAACUAAAGCGGCCCGAAGAACACAGAUAUCAAAGUGCUGGACGGUCCCUGCUUGAGCCCUUAAUGCAAGGGUACAACAGAGGAUUGAGCAUCA
B8: chr1:20742972:20743075:-|3pUTR|ENSG00000127483|unk|total|mutant (ssRNA)
RNA: GGGAGUUCUACAGUCCGACGAUCUAACCCUUUCUUAUUUGUAUUUGUUUCCGUAUUGUGAAGUUGUGUUAAACCGUACCCGCCCGAAAUACAAAUUUCUGGUUAUCAUUUCUCUUCCCUGUGGCACUUGACAUUUUAAUUGUCCAACAGAGGAUUGAGCAUCA
B9: ENSG00000155506:stop:overlap|stop_codon|ENSG00000155506|stop_codon|NA|stop_codon (ssRNA)
RNA: GGGAGUUCUACAGUCCGACGAUCAGAACGCAUUGCCGCCGGUCCUGACCACCGUGAACGGACAGUCCCCCCCAGAUACCCUUUAGGGCUGGUUUGCCUUAGUUGAGGAAGAAGACCCUCCUAGGGACUCUGUCUGCCAUCCACCAACAGAGGAUUGAGCAUCA
B10: chr21:36896991:36897096:-|CDS|ENSG00000159267|unk|FALSE|bound_elsewhere (ssRNA)
RNA: GGGAGUUCUACAGUCCGACGAUCCAGUGGCUUGGGAAACAUGUGGACUCCGAGGGAGAAAUAAAAUCCGGCCAGCUCUCUCUUAGAUUUGUUUCAUCCUACGUGUCUGAAGUAGAAAUAACCCCAUCUUGUAUACCUGUGGUGCAACAGAGGAUUGAGCAUCA
B11: chr6:4954605:4954706:+|3pUTR|ENSG00000153046|msi1|total|mutant (ssRNA)
RNA: GGGAGUUCUACAGUCCGACGAUCGGAUAAAUACUUCUGAUGAAAAAUCCGCUGAGGAGCAUACCCCAAACCAGACAUAUGCUCCGGAUUCAUGCUGAGAUAUCAAUUGGUUUCCCCUUCUUUUUAAAAUACGUCCAGUUCUUACAACAGAGGAUUGAGCAUCA
B12: ENSG00000156853:stop:overlap|stop_codon|ENSG00000156853|stop_codon|NA|stop_codon (ssRNA)
RNA: GGGAGUUCUACAGUCCGACGAUCCCCCAAACUGUAGCCCUAGAUCUGCUAUCGGGGGCUCCAGUCAGAGGGGCAACGCCCAUUAGAAGGGGAAGGACUGCCUACGUUCAUUUCAUUUUAUGGAGGGUCCCAGAAAAGGGAAGGCAACAGAGGAUUGAGCAUCA
B13: chr17:35577220:35577322:-|CDS|ENSG00000108733|unk|FALSE|unique (ssRNA)
RNA: GGGAGUUCUACAGUCCGACGAUCUCUAUUAUGUUCCUGGUUCUUCUUCCCUAUCUGAAAGUGAAGCUGGAGAAGCUGGUUUCUAGCCUGAGAGAAGAGGAUGAAUAUUCUAUUCAUCCCCCUUCUUCCCGCUGGAAACGAUUUCAACAGAGGAUUGAGCAUCA
B14: chr3:48621462:48621756:-|CDS|ENSG00000183396|control|control|control (ssRNA)
RNA: GGGAGUUCUACAGUCCGACGAUCUACCAGGUGGGGCUGGACUUGCAGCCCUGGGGGUGUCAGCCAAAGAGUGUGGAGGGCUGUAGGGGUGGCCUGAGCUGUCCUGGCUACUGGCUGGGCCCUGGAGCAAGCCGCAUCUACCCCCAACAGAGGAUUGAGCAUCA
B15: chr12:21491601:21491717:-|CDS|ENSG00000004700|unk|FALSE|unique (ssRNA)
RNA: GGGAGUUCUACAGUCCGACGAUCGCUGCCUCCCAUAGCUCUAACUGAGGAACUGGAUUCUAUAACCAGUGAGCUACAUGCAGUAGAAAUUCAAAUUCAAGAACUUACGGAAAGGCAACAAGAGCUUAUUCAGAAAAAAAAAGUCAACAGAGGAUUGAGCAUCA
B16: chr9:19276226:19276327:+|CDS|ENSG00000137145|unk|FALSE|unique (ssRNA)
RNA: GGGAGUUCUACAGUCCGACGAUCCUUUGUCGUAGCUGGUCUCACUGACACAUCUACUCUUUUGGAUCAAGAAAUAAAUCGUUUAGAUACUAAGUCAACUGGACCUAAAGCUCCAAUUACAGACAUUGCCAUUAUUAUCAAAUCCAACAGAGGAUUGAGCAUCA
B17: chr21:14485227:14485911:-|three_prime_utr|ENSG00000155307|control|control|control (ssRNA)
RNA: GGGAGUUCUACAGUCCGACGAUCCCCAACUAUAUAUCUACAGAUGCAUUCCAUUUUAACUCUUCUUGAGCUAAAACGUCAAAUAGGAGAGGAAGAUAAGAUAAAUAUUUGUAAAUAAAACCUAAAGUUUAAAUGUUUUAAUCUCAACAGAGGAUUGAGCAUCA
B18: chr5:36035020:36035974:-|three_prime_utr|ENSG00000168671|control|control|control (ssRNA)
RNA: GGGAGUUCUACAGUCCGACGAUCAGACAUAAGGCCAGGUGCAGCCUUGGCGGGGUCUGUUUGGUGGGCGAUGUCACCAUUUCUAGGGAGCUUCCCACUAGUUCUGGCAGCCCCAUUCUCUAGUCCUUCUAGUUAUCUCCUGUUCAACAGAGGAUUGAGCAUCA
B19: chr6:77462233:77463403:-|CDS|ENSG00000135312|control|control|control (ssRNA)
RNA: GGGAGUUCUACAGUCCGACGAUCACCCUUCUUCAUCAUCUCCCUAGUGAUGCCUAUCUGCAAAGAUGCCUGCUGGUUCCACCUAGCCAUCUUUGACUUCUUCACAUGGCUGGGCUAUCUCAACUCCCUCAUCAACCCCAUAAUCAACAGAGGAUUGAGCAUCA
B20: chr1:234405902:234406099:-|CDS|ENSG00000059588|control|control|control (ssRNA)
RNA: GGGAGUUCUACAGUCCGACGAUCCCUUAUAGUUGUGCUGCAGUGGUGUUUCAAUCACAAUUUUAGUGUUCGACUGUAUGCUUUAGUUGCUCUUAAGAAACUCUGGACUGUGUGUAAAGUGUUAAGUGUUGAAGAAUUUGAUGCCAACAGAGGAUUGAGCAUCA
B21: chr13:46895483:46895906:-|CDS|ENSG00000102468|control|control|control (ssRNA)
RNA: GGGAGUUCUACAGUCCGACGAUCAGUGUCCCUAGAGAAAAAGCUGCAGAAUGCCACCAACUAUUUCCUGAUGUCACUUGCCAUAGCUGAUAUGCUGCUGGGUUUCCUUGUCAUGCCCGUGUCCAUGUUAACCAUCCUGUAUGGCAACAGAGGAUUGAGCAUCA
B22: chr22:41245667:41245769:-|3pUTR|ENSG00000100401|msi1|total|mutant (ssRNA)
RNA: GGGAGUUCUACAGUCCGACGAUCCAAUGUCCGAGCUGCAUCUGGACGCUGCUCUUAAAGGACCUCCUGGGGCAGGGGAGCGGCCGGGUCUGGACUGGGCAGAUGCUGUAUGACCUCCCUGAGCACCCGUGACUGCCCCAUGCUCAACAGAGGAUUGAGCAUCA

What follows are binders tested against T1, UNK ZnF1-6 (called full-length) (human, UniProt Q9C0B0 30-357) (assay: nsRBNS (natural sequence RNA bind-n-seq); RBNS binding buffer (assumed for nsRBNS): 25 mM Tris pH 7.5, 150 mM KCl, 3 mM MgCl2, 0.01% Triton X-100, 500 ug/ml BSA, 20 U/ml SUPERase-In, 4 C; UNK is unkempt and MSI1 is Musashi-1; names of the RNAs are library labels; protein concentration not given here; high values mean tight binding).
T1 sequence: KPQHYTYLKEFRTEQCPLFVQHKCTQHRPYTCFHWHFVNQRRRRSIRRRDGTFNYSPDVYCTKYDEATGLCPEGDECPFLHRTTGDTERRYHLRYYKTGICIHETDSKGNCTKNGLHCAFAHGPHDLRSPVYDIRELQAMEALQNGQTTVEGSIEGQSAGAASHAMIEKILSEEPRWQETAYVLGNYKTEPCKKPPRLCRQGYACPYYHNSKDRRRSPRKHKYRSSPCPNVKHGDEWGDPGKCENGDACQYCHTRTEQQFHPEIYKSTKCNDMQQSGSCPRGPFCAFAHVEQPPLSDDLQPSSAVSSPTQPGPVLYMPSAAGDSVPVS

Binder | binding signal [enrichment R]
B1 | 1.13
B2 | 1.33
B3 | 0.346
B4 | 0.837
B5 | 0.414
B6 | 0.711
B7 | 0.59
B8 | 0.704
B9 | 0.761
B10 | 1.01
B11 | 0.266
B12 | 0.702
B13 | 0.351
B14 | 0.88
B15 | 0.594
B16 | 0.56
B17 | 0.616
B18 | 1.32
B19 | 0.845
B20 | 0.664
B21 | 0.647
B22 | 0.615
